Assay results as given in PubChem BioAssay AID463173 (ICCB-Longwood Screening Facility, Harvard Medical School, 2010).
The campaign covered roughly 52,000 compounds. About 4,300 (8.3%) were called active. Rule as the data show it: active = survival mostly below about 52% (no sharp cut-off); inactive = mostly above about 56%. The list shows a part of the results.

What follows are compounds tested on DeltatarO mutant (assay: S. aureus survival, RN4220 and DeltatarO strains – OD600, teichoic acid synthesis inhibitors, primary screen (AID 463173)). Settings: S. aureus RN4220 wild type/DeltatarO growth, OD600, 18 h, stronger effect = lower value, screened at 18.75 µg/mL (by protocol).

SMILES | survival
Cc1noc(/C=C/c2ccccc2F)c1S(=O)(=O)N1CCC(C(=O)NCc2ccco2)CC1 | inactive: 107%
COc1ccc(CCNC(=O)CCc2c(C)nc3cc(-c4ccc(Cl)cc4)nn3c2C)c(OC)c1 | inactive: 108%
COc1ccccc1CN1CCC(C(=O)NCc2ccc(C)cc2)CC1 | inactive: 101%
COc1ccccc1Cc1nc2ccccc2nc1SCC(=O)N1CCCCC1 | inactive: 71%
CCCCOc1ccccc1NC(=O)CC1Sc2ccccc2NC1=O (centres undefined) | inactive: 155%
COc1ccc(NC(=O)c2sc3nc4n(c(=O)c3c2C)CCC4)c(OC)c1 | inactive: 79%
CCc1ccc(NC(=O)Cn2c(=O)n(Cc3ccc(C)cc3)c(=O)c3cccnc32)cc1 | inactive: 88%
CC(=O)N1CCCc2cc(S(=O)(=O)N3CCC(C(=O)N(C)C4CCCCC4)CC3)ccc21 | inactive: 74%
Cc1ccccc1C(=O)Nc1nnc(S(=O)(=O)N2CCc3ccccc32)s1 | inactive: 95%
CCOC(=O)c1ccccc1NC(=O)N1CCCn2nc(C)cc21 | inactive: 87%
O=C(/C=C(/O)c1cccnc1)C(F)(F)F | inactive: 93%
Cc1cc(C)cc(N2C(=O)CSC23C(=O)N(CC(=O)NC2CCCCC2)c2ccccc23)c1 (centres undefined) | inactive: 115%
CCOc1ccc(C2CC(=O)c3c([nH]c(C(=O)OCCOc4ccccc4)c3C)C2)cc1 (centres undefined) | inactive: 72%
CN(C)N1C(=O)CC(N2CCCC2)C1=O (centres undefined) | inactive: 72%
O=C(c1ccc2c(c1)N(Cc1cccc(Cl)c1)C(=O)c1ccccc1S2(=O)=O)N1CCCC1 | inactive: 115%
Cc1ccccc1Cn1nnc2c(=O)[nH]c(C3CCCN(C(=O)c4ccc(C(C)(C)C)cc4)C3)nc21 (centres undefined) | active: 7%
COc1ccc(OC)c(CCNC(=O)c2cnn(-c3ccccc3)c2-n2cccc2)c1 | inactive: 74%
CN(c1ccc(C(=O)N2CCCCC2)cc1)S(C)(=O)=O | inactive: 101%
O=C(/C=N/O)Nc1cccnc1 | inactive: 105%
O=C(CCS(=O)(=O)c1cc(Br)cc2c1N(C(=O)C1CC1)CC2)N1CCN(c2ccccc2)CC1 | inactive: 91%

SMILES | survival
CCN(CC)C(=O)CSc1nc2c(c(=O)n(C)c(=O)n2C)n1Cc1ccccc1 | inactive: 76%
CCOc1ccc(NC(=O)c2cnn(-c3ccccc3)c2-n2cccc2)cc1 | inactive: 71%
O=C(CN1CCOCC1)NN=C1CCCCC1 | inactive: 92%
O=C(Cn1cc(SCc2ccc(F)cc2)c2ccccc21)N1CCCCCC1 | inactive: 81%
N#Cc1c(-c2ccccc2)cc(-c2ccccc2)nc1SCC(O)CS(=O)(=O)Cc1ccccc1 (centres undefined) | inactive: 67%
CCOCCCNC(=O)C1CCCN(c2ncnc3onc(C)c23)C1 (centres undefined) | inactive: 68%
O=C(CCc1ccccc1)N(Cc1cccnc1)c1nc2ccc(F)cc2s1 | inactive: 80%
Cc1nn(C)c2c1c(-c1ccccc1)cc(=O)n2Cc1ccc(F)cc1Cl | inactive: 89%
CCN(CC)C(=O)Cn1c(=O)n(-c2ccc(Cl)cc2)c(=O)c2c3c(sc21)CCCCC3 | inactive: 89%
CC1CCN(C(=O)c2cc3n(n2)C(C(F)(F)F)CC(c2ccccc2)N3)C(C)C1 (centres undefined) | inactive: 81%
CCS(=O)(=O)c1nnnn1-c1ccccc1 | active: 9%
O=S1(=O)CCC(NC2CCCCC2)C1 (centres undefined) | inactive: 96%
CCCN(Cc1cccs1)C(=O)Nc1cc(C)cc(C)c1 | inactive: 98%
CCC(CC)c1nc2ccccc2c(=O)[nH]1 | inactive: 98%
CN(Cc1ccccc1)c1ccc2cc(S(=O)(=O)N3CCCCC3)ccc2n1 | inactive: 64%
COc1ccc2cc(-c3nc(-c4ccc(N(C)C)cc4)no3)c(=O)oc2c1 | inactive: 96%
Cc1ccc(C)c(CSc2cn(CC(=O)N3CCCC3)c3ccccc23)c1 | inactive: 63%
CCOc1ccc(CN2CCC(C(=O)NCC3CCCO3)CC2)cc1OC (centres undefined) | inactive: 99%
COc1ccc(NC(=O)CC2C(=O)N(c3ccc(OC)cc3)C(=O)N2Cc2ccc(OC)c(OC)c2)cc1 (centres undefined) | inactive: 131%
CCOc1ccc(C(c2nnnn2C(C)C)N2CCN(c3cccc(Cl)c3)CC2)cc1 (centres undefined) | inactive: 93%

SMILES | survival
CCOc1ccc(CCNC(=O)CCn2c(=O)c3cccn3c3ccc(F)cc32)cc1OCC | active: 42%
COCCCNC(=O)C1CCN(Cc2cc3ccccc3n2Cc2cccc(Cl)c2)CC1 | inactive: 87%
Cc1ccc(-c2cn3c(n2)sc2cc(C(=O)NC4CCCCCC4)ccc23)cc1 | inactive: 94%
Cc1cc(C)n2nc(CNC(=O)c3cccc(N(C)C)c3)nc2n1 | inactive: 126%
Cc1noc2ncnc(NCCc3ccccc3)c12 | inactive: 67%
O=C(c1ccccc1)N1CCC(O)(c2cccnc2)CC1 | inactive: 70%
COc1ccc(N2CCN(C(=O)c3ccc4c(c3)CCN4S(=O)(=O)c3ccccc3)CC2)cc1 | inactive: 92%
COc1cccc(-c2cc(C(=O)NCc3ccccc3)no2)c1 | active: 45%
Cc1c(C(=O)N(C)Cc2ccccc2)sc2nc(-c3ccc(F)cc3)cn12 | inactive: 69%
COc1cc(NC(=O)CSc2cc(=O)n(C)c3ccccc23)cc(OC)c1OC | inactive: 99%
CC(NCc1ccc2c(c1)n(C)c(=O)n2C)c1ccccc1 (centres undefined) | inactive: 94%
CCOc1ccccc1NC(=O)C1CCCN(S(=O)(=O)c2cccs2)C1 (centres undefined) | inactive: 97%
Cc1ccc(NS(=O)(=O)c2ccc3nc(-c4ccccc4)[nH]c3c2)cc1Cl | active: 6%
COc1ccc(Br)cc1CNC(=O)C1CCN(c2nnc(-n3cccc3CNc3ccc(C)cc3)s2)CC1 | inactive: 72%
O=S(=O)(Nc1nc2n(n1)C(c1ccc(F)cc1)C=C(c1ccc(Cl)cc1)N2)c1ccccc1 (centres undefined) | active: 42%
CCn1cc(C(=O)N(C)c2cc(C)ccc2C)c2cc(OC)c(OC)cc2c1=O | inactive: 171%
CSc1nn(CC(=O)Nc2ccc(C)cc2C)c(N)c1S(=O)(=O)c1ccc(Cl)cc1 | inactive: 57%
Cc1ccc(C)c(S(=O)(=O)c2nnn3c2nc(NCc2ccc4c(c2)OCO4)c2sccc23)c1 | inactive: 90%
CN(C)c1ccc(NC(=O)Cn2c(SCc3ccccc3F)nc3cccnc32)cc1 | inactive: 124%
